Experimental data as given in paper PMC6499814.
Results are given in words; binding and its absence hold for the method and conditions named. In cells and extracts the contact can be indirect. For part of these data: Where a sequence is shown, tags or fusion partners need not be part of it. Blank lines part the entries; values can stand above or below the binder they belong to.

How the values were obtained:
[1] = biological target: T1, Flag-tagged STX17 (syntaxin 17), P56962; experiment: co-IP; Wild-type or Fis1 KO HeLa cells transfected with Flag-STX17 (or its mutants) and the indicated plasmids for 24 h; IP with anti-Flag beads and immunoblotting; also in cells cultured in glucose or galactose medium for 18 h; conditions: remark: other sources report otherwise
T1 chain: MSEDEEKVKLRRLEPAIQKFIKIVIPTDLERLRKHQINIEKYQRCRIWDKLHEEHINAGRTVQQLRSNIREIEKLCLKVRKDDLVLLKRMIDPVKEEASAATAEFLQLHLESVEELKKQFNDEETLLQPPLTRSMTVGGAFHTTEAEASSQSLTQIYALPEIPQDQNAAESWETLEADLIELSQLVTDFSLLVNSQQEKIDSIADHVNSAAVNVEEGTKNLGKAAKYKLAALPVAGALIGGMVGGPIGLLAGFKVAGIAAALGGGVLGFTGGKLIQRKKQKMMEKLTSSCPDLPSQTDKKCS

Flag-tagged Drp1, O00429 = experiment: co-IP; HEK293T cells co-transfected with Myc-tagged STX17 (or truncations) and Flag-tagged plasmids for 24 h; IP with anti-Flag, blots with anti-Myc and anti-Flag; NP-40 lysis buffer, FLAG M2 beads, 4 °C, 3 h; conditions: remark: other sources report otherwise
Flag-tagged Mfn2, O95140 = biological target: T2, Flag-tagged Mfn2, O95140; experiment: as above; conditions: remark: other sources report otherwise
T2 chain: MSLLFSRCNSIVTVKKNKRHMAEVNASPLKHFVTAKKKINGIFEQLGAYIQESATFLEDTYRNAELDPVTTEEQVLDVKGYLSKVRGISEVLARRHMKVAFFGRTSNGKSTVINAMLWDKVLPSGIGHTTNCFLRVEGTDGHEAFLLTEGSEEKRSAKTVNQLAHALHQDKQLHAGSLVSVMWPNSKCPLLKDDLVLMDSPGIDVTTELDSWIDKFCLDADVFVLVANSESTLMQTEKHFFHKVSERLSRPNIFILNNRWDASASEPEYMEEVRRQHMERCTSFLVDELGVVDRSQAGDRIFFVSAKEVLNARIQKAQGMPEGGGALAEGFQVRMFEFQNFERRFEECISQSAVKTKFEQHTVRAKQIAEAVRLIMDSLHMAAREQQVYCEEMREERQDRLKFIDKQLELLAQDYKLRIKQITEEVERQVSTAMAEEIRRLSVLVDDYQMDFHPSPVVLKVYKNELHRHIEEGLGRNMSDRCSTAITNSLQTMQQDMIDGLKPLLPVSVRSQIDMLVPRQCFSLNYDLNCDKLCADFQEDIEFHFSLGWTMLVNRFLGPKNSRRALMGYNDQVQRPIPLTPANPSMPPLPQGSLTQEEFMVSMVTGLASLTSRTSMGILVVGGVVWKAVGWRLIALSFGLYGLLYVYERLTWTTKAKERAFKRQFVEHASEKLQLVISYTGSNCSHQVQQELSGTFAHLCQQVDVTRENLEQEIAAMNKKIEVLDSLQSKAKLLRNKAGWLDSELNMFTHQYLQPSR

[2] = biological target: Flag-tagged STX17 (syntaxin 17) (UniProt P56962); experiment: co-IP; Wild-type or Fis1 KO HeLa cells transfected with Flag-STX17 (or its mutants) and the indicated plasmids for 24 h; IP with anti-Flag beads and immunoblotting; also in cells cultured in glucose or galactose medium for 18 h

B1: ATG5, Q9H1Y0 1-275 (protein)
chain: MTDDKDVLRDVWFGRIPTCFTLYQDEITEREAEPYYLLLPRVSYLTLVTDKVKKHFQKVMRQEDISEIWFEYEGTPLKWHYPIGLLFDLLASSSALPWNITVHFKSFPEKDLLHCPSKDAIEAHFMSCMKEADALKHKSQVINEMQKKDHKQLWMGLQNDRFDQFWAINRKLMEYPAEENGFRYIPFRIYQTTTERPFIQKLFRPVAADGQLHTLGDLLKEVCPSAIDPEDGEKKNQVMIHGIEPMLETPLQWLSEHLSYPDNFLHISIIPQPTD
- binding [1]: no binding

B3: DFCP1 (protein, UniProt Q9HBF4 1-777)
chain: MSAQTSPAEKGLNPGLMCQESYACSGTDEAIFECDECCSLQCLRCEEELHRQERLRNHERIRLKPGHVPYCDLCKGLSGHLPGVRQRAIVRCQTCKINLCLECQKRTHSGGNKRRHPVTVYNVSNLQESLEAEEMDEETKRKKMTEKVVSFLLVDENEEIQVTNEEDFIRKLDCKPDQHLKVVSIFGNTGDGKSHTLNHTFFYGREVFKTSPTQESCTVGVWAAYDPVHKVAVIDTEGLLGATVNLSQRTRLLLKVLAISDLVIYRTHADRLHNDLFKFLGDASEAYLKHFTKELKATTARCGLDVPLSTLGPAVIIFHETVHTQLLGSDHPSEVPEKLIQDRFRKLGRFPEAFSSIHYKGTRTYNPPTDFSGLRRALEQLLENNTTRSPRHPGVIFKALKALSDRFSGEIPDDQMAHSSFFPDEYFTCSSLCLSCGVGCKKSMNHGKEGVPHEAKSRCRYSHQYDNRVYTCKACYERGEEVSVVPKTSASTDSPWMGLAKYAWSGYVIECPNCGVVYRSRQYWFGNQDPVDTVVRTEIVHVWPGTDGFLKDNNNAAQRLLDGMNFMAQSVSELSLGPTKAVTSWLTDQIAPAYWRPNSQILSCNKCATSFKDNDTKHHCRACGEGFCDSCSSKTRPVPERGWGPAPVRVCDNCYEARNVQLAVTEAQVDDEGGTLIARKVGEAVQNTLGAVVTAIDIPLGLVKDAARPAYWVPDHEILHCHNCRKEFSIKLSKHHCRACGQGFCDECSHDRRAVPSRGWDHPVRVCFNCNKKPGDL
- binding [2]: no binding

Results, then the binder that gave them:

- binding (Flag-tagged Drp1, O00429): no binding
- binding (Flag-tagged Mfn2, O95140): no binding
B2: Myc-tagged STX17 (syntaxin 17), P56962 1-302 (protein)
chain: T1 chain

- binding [2]: no binding
B4: WIPI-1 (protein, UniProt Q5MNZ9 1-446)
chain: MEAEAADAPPGGVESALSCFSFNQDCTSLATGTKAGYKLFSLSSVEQLDQVHGSNEIPDVYIVERLFSSSLVVVVSHTKPRQMNVYHFKKGTEICNYSYSSNILSIRLNRQRLLVCLEESIYIHNIKDMKLLKTLLDIPANPTGLCALSINHSNSYLAYPGSLTSGEIVLYDGNSLKTVCTIAAHEGTLAAITFNASGSKLASASEKGTVIRVFSVPDGQKLYEFRRGMKRYVTISSLVFSMDSQFLCASSNTETVHIFKLEQVTNSRPEEPSTWSGYMGKMFMAATNYLPTQVSDMMHQDRAFATARLNFSGQRNICTLSTIQKLPRLLVASSSGHLYMYNLDPQDGGECVLIKTHSLLGSGTTEENKENDLRPSLPQSYAATVARPSASSASTVPGYSEDGGALRGEVIPEHEFATGPVCLDDENEFPPIILCRGNQKGKTKQS

- binding [1]: no binding
B5: ULK1, O75385 1-1050 (protein)
chain: MEPGRGGTETVGKFEFSRKDLIGHGAFAVVFKGRHREKHDLEVAVKCINKKNLAKSQTLLGKEIKILKELKHENIVALYDFQEMANSVYLVMEYCNGGDLADYLHAMRTLSEDTIRLFLQQIAGAMRLLHSKGIIHRDLKPQNILLSNPAGRRANPNSIRVKIADFGFARYLQSNMMAATLCGSPMYMAPEVIMSQHYDGKADLWSIGTIVYQCLTGKAPFQASSPQDLRLFYEKNKTLVPTIPRETSAPLRQLLLALLQRNHKDRMDFDEFFHHPFLDASPSVRKSPPVPVPSYPSSGSGSSSSSSSTSHLASPPSLGEMQQLQKTLASPADTAGFLHSSRDSGGSKDSSCDTDDFVMVPAQFPGDLVAEAPSAKPPPDSLMCSGSSLVASAGLESHGRTPSPSPPCSSSPSPSGRAGPFSSSRCGASVPIPVPTQVQNYQRIERNLQSPTQFQTPRSSAIRRSGSTSPLGFARASPSPPAHAEHGGVLARKMSLGGGRPYTPSPQVGTIPERPGWSGTPSPQGAEMRGGRSPRPGSSAPEHSPRTSGLGCRLHSAPNLSDLHVVRPKLPKPPTDPLGAVFSPPQASPPQPSHGLQSCRNLRGSPKLPDFLQRNPLPPILGSPTKAVPSFDFPKTPSSQNLLALLARQGVVMTPPRNRTLPDLSEVGPFHGQPLGPGLRPGEDPKGPFGRSFSTSRLTDLLLKAAFGTQAPDPGSTESLQEKPMEIAPSAGFGGSLHPGARAGGTSSPSPVVFTVGSPPSGSTPPQGPRTRMFSAGPTGSASSSARHLVPGPCSEAPAPELPAPGHGCSFADPITANLEGAVTFEAPDLPEETLMEQEHTEILRGLRFTLLFVQHVLEIAALKGSASEAAGGPEYQLQESVVADQISLLSREWGFAEQLVLYLKVAELLSSGLQSAIDQIRAGKLCLSSTVKQVVRRLNELYKASVVSCQGLSLRLQRFFLDKQRLLDRIHSITAERLIFSHAVQMVQSAALDEMFQHREGCVPRYHKALLLLEGLQHMLSDQADIENVTKCKLCIERRLSALLTGICA
